# Laboratory results published in the supplement of paper PMC4604168 (melanoma cell lines).
# The list shows a part of the results. Repeats are few or missing, and single values can be far off.
# Legend:
# Experiment in all cases: cell count relative to DMSO control; melanoma cells; higher = more viable cells
# Conditions in all cases: library dose: low library concentration; 72 h
# [1] = tested on: COLO792
# [2] = tested on: COLO800
# [3] = tested on: COLO829
# [4] = tested on: G361
# [5] = tested on: IPC-298
# [6] = tested on: IST-MEL1
# [7] = tested on: LOXIMVI
# [8] = tested on: MEL-HO
# [9] = tested on: MeWo
# [10] = tested on: RPMI7951
# [11] = tested on: RVH-421
# [12] = tested on: SkMel28
# [13] = tested on: SkMel30
# [14] = tested on: SkMel5
# [15] = tested on: UACC257
# [16] = tested on: UACC62
# [17] = tested on: WM115
# [18] = tested on: WM1716
# [19] = tested on: LB2518-MEL
# [20] = tested on: MZ2-MEL
# 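Note: cell number obtained by counting DAPI-stained nuclei in high-throughput microscope images with image analysis software, screen run in 1,536-well plates.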
SMILES,cell count [1],cell count [2],cell count [3],cell count [4],cell count [5],cell count [6],cell count [7],cell count [8],cell count [9],cell count [10],cell count [11],cell count [12],cell count [13],cell count [14],cell count [15],cell count [16],cell count [17],cell count [18],cell count [19],cell count [20]
"N#Cc1c(O)c2c(-c3ccc(-c4ccccc4O)cc3)csc2[nH]c1=O + COC(=O)c1sccc1S(=O)(=O)Nc1ccc(Nc2ccccc2)cc1OC [GSK0660] (first compound 2 µM, partner dose 1 µM)",101%,118%,97.6%,113%,105%,109%,138%,99.7%,95.2%,102%,78.3%,86.8%,119%,99%,98.3%,90.8%,109%,114%,,
"CCCCCCCCCCCC1=C(O)C(=O)C=C(O)C1=O [Embelin] + O=c1cc(-c2cccc3c2Sc2ccccc2S3)oc(N2CCOCC2)c1 [KU55933] (first compound 1.2 µM, partner dose 1 µM)",96.8%,71.4%,105%,89.2%,99%,95.8%,142%,105%,92.3%,85.1%,109%,91.9%,97.8%,107%,87.5%,107%,101%,107%,,
"COc1cc2ncnc(Nc3ccc(Oc4ccccc4)cc3)c2cc1OC + CC(C)CCN1c2nc(Nc3cc(F)c(O)c(F)c3)ncc2N(C)C(=O)C1C [BID1870] (first compound 2 µM, partner dose 0.2 µM)",106%,97.5%,121%,121%,105%,105%,96.3%,106%,101%,97.1%,94.8%,81.5%,115%,100%,106%,89.4%,98.5%,110%,,
"COc1ccc(-c2ccc3c(N4CCOCC4)nc(N4C[C@@H](C)O[C@@H](C)C4)nc3n2)cc1CO + COc1ccc(COc2ccc(Cc3cnc(N)nc3N)cc2OC)cc1 [GW2580] (first compound 0.02 µM, partner dose 1 µM)",99.3%,146%,93.7%,101%,94.4%,110%,62.9%,95.3%,104%,97.7%,117%,77.9%,108%,102%,98.8%,99.1%,92.7%,110%,103%,92.5%
"N#Cc1c(O)c2c(-c3ccc(-c4ccccc4O)cc3)csc2[nH]c1=O + O=S(=O)(c1ccccc1)N(CC(F)(F)F)c1ccc(C(O)(C(F)(F)F)C(F)(F)F)cc1 [T0901317] (first compound 2 µM, partner dose 1.4 µM)",96.1%,66.5%,85.4%,83.9%,90.6%,93.8%,92.5%,98.3%,89.7%,96.3%,89.5%,91.5%,94.8%,80.2%,78%,84.6%,88.9%,84.7%,,
"COc1ccc2c(c1)CCC1C2CCC2(C)C(NCCCCCCN3C(=O)C=CC3=O)CCC12 (stereo not given) + COc1cc(N2CCC(N3CCN(C)CC3)CC2)ccc1Nc1ncc(Cl)c(Nc2ccccc2S(=O)(=O)C(C)C)n1 [NVP-TAE684] (first compound 0.4 µM, partner dose 0.08 µM)",97.8%,60.4%,90.1%,96%,108%,102%,88.1%,103%,62.4%,75.6%,105%,109%,95.7%,95.9%,74.6%,102%,98%,87%,,
"CCN(CC)CCCCNc1ncc2cc(-c3cc(OC)cc(OC)c3)c(NC(=O)NC(C)(C)C)nc2n1 + O=S(=O)(c1ccccc1)N(CC(F)(F)F)c1ccc(C(O)(C(F)(F)F)C(F)(F)F)cc1 [T0901317] (first compound 0.1 µM, partner dose 1.4 µM)",92%,137%,105%,98.5%,98.9%,102%,91.9%,95.9%,104%,119%,63.3%,78.7%,89.5%,96.9%,97.2%,116%,88.9%,104%,116%,102%
"Cc1cc([N+](=O)[O-])ccc1NS(=O)(=O)c1cc(Cl)ccc1Cl + CC(C)CCN1c2nc(Nc3cc(F)c(O)c(F)c3)ncc2N(C)C(=O)C1C [BID1870] (first compound 1 µM, partner dose 0.2 µM)",81.6%,83.5%,109%,78.9%,89.8%,81.8%,96.2%,90.9%,79%,111%,101%,73.6%,107%,97.4%,75.7%,88.8%,99.5%,109%,114%,
"COC(=O)c1sccc1S(=O)(=O)Nc1ccc(Nc2ccccc2)cc1OC + O=C(O)C(=O)Nc1sc2c(c1C(=O)O)CCNC2 [TCS401] (first compound 1 µM, partner dose 1.66667 µM)",112%,75.6%,87.7%,86.3%,101%,99.6%,90.3%,94%,90.2%,100%,87.8%,89.1%,99.8%,86.6%,78.8%,100%,100%,106%,,
"O=C1NC(=O)/C(=C/c2ccc(-c3ccc(F)cc3O)o2)S1 + Cc1cc([N+](=O)[O-])ccc1NS(=O)(=O)c1cc(Cl)ccc1Cl [FH535] (first compound 1 µM, partner dose 1 µM)",87.5%,85.3%,112%,94.1%,90.1%,88.6%,90.9%,105%,89.8%,106%,106%,91%,94.1%,80.5%,88.3%,85.1%,86.1%,98.8%,,
